Laboratory results published in PubChem BioAssay AID1645882 (National Center for Advancing Translational Sciences (NCATS), 2021).
Hit rate of the full screen: of about 16,000 compounds, about 120 (0.75%) were called active. Another 4% or so got no clear call; they are omitted. Calls come from the whole dose curve; as a rule, active = well fitted inhibition curve with a large enough effect; inconclusive = small, poorly fitted or top-dose-only effect; inactive = no such curve, though single readings can be large or run the other way. This is one part of the list. Where a SMILES comes first, the peptide text is derived from it.

target: Rap guanine nucleotide exchange factor 3 (Homo sapiens) (UniProt O95398); assay: Validation qHTS for antagonist of cAMP-regulated guanine nucleotide exchange factor 3 (EPAC1); conditions: EPAC1 Rap1B-BODIPY-GDP exchange, fluorescence; series mostly up to 150 µM; activity change, negative = inhibition: at the top concentration; note: nearly all actives have a fitted effect of over 75% in size
UniProt O95398, sequence (O95398 whole entry, looked up): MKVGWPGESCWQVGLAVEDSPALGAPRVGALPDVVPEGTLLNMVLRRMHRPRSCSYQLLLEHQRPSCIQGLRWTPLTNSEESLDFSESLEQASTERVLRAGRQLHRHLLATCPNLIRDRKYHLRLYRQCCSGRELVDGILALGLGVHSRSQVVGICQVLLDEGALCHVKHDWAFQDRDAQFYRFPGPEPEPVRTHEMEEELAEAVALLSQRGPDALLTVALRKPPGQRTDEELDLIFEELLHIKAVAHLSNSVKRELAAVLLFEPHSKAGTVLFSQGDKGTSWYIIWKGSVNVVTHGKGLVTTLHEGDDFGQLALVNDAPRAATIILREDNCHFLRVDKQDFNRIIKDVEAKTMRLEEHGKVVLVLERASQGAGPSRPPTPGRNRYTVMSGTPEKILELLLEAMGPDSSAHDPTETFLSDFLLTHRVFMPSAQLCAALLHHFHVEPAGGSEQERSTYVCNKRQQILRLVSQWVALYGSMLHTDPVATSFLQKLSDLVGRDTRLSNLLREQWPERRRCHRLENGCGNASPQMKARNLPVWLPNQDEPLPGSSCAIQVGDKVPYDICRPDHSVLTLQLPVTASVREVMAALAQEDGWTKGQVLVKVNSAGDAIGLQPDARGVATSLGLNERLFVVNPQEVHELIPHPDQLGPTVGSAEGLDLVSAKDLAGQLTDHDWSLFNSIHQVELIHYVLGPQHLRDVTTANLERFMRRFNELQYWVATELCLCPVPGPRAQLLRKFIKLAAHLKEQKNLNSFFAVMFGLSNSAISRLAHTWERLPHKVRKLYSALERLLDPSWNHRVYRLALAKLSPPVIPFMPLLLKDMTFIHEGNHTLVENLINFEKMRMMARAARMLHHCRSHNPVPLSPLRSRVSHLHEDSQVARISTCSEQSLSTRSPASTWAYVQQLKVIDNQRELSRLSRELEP
Excerpt: Assay Provider (PI): Xiaodong Cheng Ph.D.
The University of Texas Medical Branch, […], TX
In multi-cellular eukaryotic organisms, the effects of cAMP are transduced by two ubiquitously-expressed intracellular cAMP receptors, the classic protein kinase A/cAMP-dependent protein kinase (PKA/cAPK) and the more recently discovered exchange protein directly activated by cAMP/cAMP-regulated guanine nucleotide exchange factor (EPAC/cAMP-GEF). Both PKA and EPAC are ubiquitously expressed in all tissues, and an increase in intracellular cAMP levels will lead to the activation of both PKA and EPAC. Therefore, careful dissections of the individual role and relative contribution of EPAC and PKA within the overall cAMP signaling in various model systems are critical for further elucidating the mechanism of cAMP signaling. To date no EPAC-specific antagonists and agonist, as well as isoform-specific agonists have been reported, and developing EPAC-specific pharmacological probes to determine the physiological functions that EPAC play in the overall cAMP-mediated signaling remains a major challenge within the research field. Furthermore, identified regulators of EPAC may lead to new mechanism-based therapeutic strategies specifically targeting the EPAC / cAMP-signaling components as EPAC has been implicated to play important roles in major human pathological conditions such as diabetes, heart disease, and cancer.
This qHTS will be used to screen the Molecular Libraries Small Molecule Repository (MLSMR) as a concentration-titration series using the NCGC unique quantitative screening (qHTS) platform to find activators for EPAC1. In addition, this assay will also be used as a counterscreen for the EPAC2 qHTS. This fluorescent based assay is developed and validated for EPAC1 that measures exchange using EPAC effector Rap1 complex with BODIPY-GDP, a GDP analog with a tethered fluorophores. Activators are identified by monitoring the change in fluorescence signal as the exchanged free BODIPY-GDP has a reduced fluorescence compared to Rap1-bound BODIPY-GDP. Increase in signal (activation) is the desired outcome for the EPAC1 agonist while no activity in this assay is desired for the EPAC2 agonist counterscreen.
[1] de Rooij, J., Zwartkruis, F. J., Verheijen, M. H., Cool, R. H., Nijman, S. M., Wittinghofer, A., and Bos, J.L. (1998) Nature 396, 474-477.
Briefly, three uL of reagents (100 nM EPAC1, 250 nM RAP1B-BODIPY-GDP, 50 uM GDP) were dispensed into a 1536-well Greiner black solid-bottom medium binding assay plate. Controls and test compounds (23 nL) were transferred to the plate via a Kalypsys pin tool equipped with a 1536-pin array. The plates were centrifuged at 1,000 rpm for 15 seconds followed by 5 minute incubation at room temperature. The assay plates were read at 5 minute intervals for 30 minutes in the ViewLux plate reader using 480nm excitation and 540nm emission filters. The results were normalized to the […] positive control ATA and DMSO.

Activity change, negative = inhibition, inactive:
C[C@]12CC3CC(N)(C1)C[C@@](C)(C3)C2 1.41%
C[C@@H]1CN(Cc2ccc3c(c2)CN(Cc2ccc(Oc4ncccn4)cc2)CCO3)C[C@H](C)O1 9.82%
COC1=CC(=O)CC(C)C12Oc1c(Cl)c(OC)cc(OC)c1C2=O (stereo not drawn) -8.02%
COc1ccc(C(=O)C[n+]2cccc3cccc(O)c32)cc1 -14.8%
Cc1ccccc1C1(CC(=O)N2CC3(C)CC2CC(C)(C)C3)CC(=O)N(Cc2cccnc2)C1=O (stereo not drawn) -2.13%
OC[C@H]1O[C@@H](OC[C@H]2O[C@@H](O)[C@H](O)[C@@H](O)[C@@H]2O)[C@H](O)[C@@H](O)[C@@H]1O 11.8%
Cc1cccc(CNc2ccnc(-c3ccc(N(C)C)cc3)n2)c1 -6.99%
CN(C)c1ncc2nc(-c3cccc(C#N)c3)c(=O)n(CCC#N)c2n1 9.45%
CCOC(=O)C[C@H]1c2ccccc2S(=O)(=O)N1c1ccccc1 7.26%
CCNc1ncc2nc(-c3cn(C)c4ccccc34)c(=O)n(-c3ccccc3)c2n1 15.6%
COc1cc(CN2CCCC(n3cc(C(=O)N4CCCCC4)nn3)C2)cc(OC)c1OC (stereo not drawn) 16.3%
C=CC(C1=CC(=O)C(OC)=C(OC)C1=O)c1ccccc1 (stereo not drawn) 4.74%
c1ccc2c(CCC3CCNCC3)c[nH]c2c1 -3.21%
CCCS(=O)(=O)NCc1c(C)ncc2c1CCN(C(=O)c1ccc3[nH]c4c(c3c1)CCCC4)C2 3.8%
CCCCCCCCCCCCCCC[C@@H](O)[C@@H](N)CO
C[n+]1cccc(C(=O)[O-])c1 10.2%
COc1cc(C)c(/C=C/C(C)=C/C=C/C(C)=C/C(=O)O)c(C)c1C
CCOC(=O)C[C@H]1c2ccc(C(F)(F)F)cc2S(=O)(=O)N1C(C)(C)C 16.8%
CCCCCCCCCCCCCCCCCC(=O)OCC(O)CO (stereo not drawn) -138%
COC(=O)c1cc(CNC(=O)c2cccc(N(C)C)c2)cc(NC(=O)c2ccccc2Cl)c1 -7.78%
O=c1[nH]c(=O)n([C@H]2C[C@H](O)[C@@H](CO)O2)cc1F
COc1ccccc1CN1CC[C@@]2(CCCN(C(=O)c3cccc(F)c3)C2)C1 7.38%
CCCCCCOC(=O)c1cccnc1 12.2%
Fc1ccc(Nc2ccnc(-c3ccoc3)n2)cc1 9.27%
O=c1c(-c2ccc(F)cc2)nc2cnc(Oc3cccc(Cl)c3)nc2n1C1CC1 20.4%
CCNc1ncc2nc(-c3ccc(Cl)cc3)c(=O)n(C)c2n1 2.22%
CC(C)CC(NC(=O)OCC1c2ccccc2-c2ccccc21)C(=O)O (stereo not drawn) 0.979%
Cc1ccccc1C1(CC(=O)N2CCCCC2C)CC(=O)N(Cc2cccnc2)C1=O (stereo not drawn) 12.8%
O=C(Oc1ccccc1)N1CCC2(CCCN(c3ccncc3)C2)CC1 13.9%
COc1cc(CN2CCCC(n3cc(C(=O)N4CCCC4)nn3)C2)cc(OC)c1 (stereo not drawn) 10.1%
Cc1ccc(-c2ccnc(-n3ncc(C(=O)N(C)Cc4cccc5ncccc45)c3C3CC3)n2)o1 17.5%
Cc1noc(C)c1CCC(=O)N1CCOc2ccc(CN3CCN(c4ccccn4)CC3)cc2C1 11%
Clc1ccc[n+](CCCCC[n+]2cccc(Cl)c2)c1 -27.8%
NS(=O)(=O)c1cc2c(cc1Cl)NCNS2(=O)=O
CC1=C(/C=C/C(C)=C/C=C/C(C)=C/C=C/C=C(C)/C=C/C=C(C)/C=C/C(=O)[C@]2(C)CC(O)CC2(C)C)C(C)(C)CC(O)C1 (stereo partly drawn) -3.62%
COc1cc(/C=C/C(=O)O)ccc1O 1.31%
CS(=O)(=O)N1CCC2(CCCN(C(=O)Nc3cccc(C#N)c3)C2)CC1 23.7%
Cc1cnc(SCc2ccccn2)nc1C1CCCN(C(=O)c2ccc3c(c2)OCCO3)C1 (stereo not drawn) 9.8%
C[N+]1(C)CCC(=C(c2ccccc2)c2ccccc2)CC1
COc1ccc(-c2noc(CC(=O)O)c2-c2ccc(OC)cc2)cc1 11.1%
CN(C)CCc1c[nH]c2ccc(C[C@H]3COC(=O)N3)cc12 19.5%
COc1cc2c(cc1OC)C(C(=O)c1ccc(OC)c(OC)c1O)=NCC2 7.39%
CN(C)CCC=C1c2ccccc2C=Cc2ccccc21
NC(N)=N/N=C/c1c(Cl)cccc1Cl
C#C[C@]1(O)CC[C@H]2[C@@H]3CCC4=CC(=O)CC[C@@H]4[C@H]3CC[C@@]21C 15.3%
CC(=O)N[C@@H]1C(O[C@H]2O[C@H](C(=O)O)C(O)[C@H](O)[C@H]2O)[C@H](O)[C@@H](CO)O[C@H]1O[C@@H]1C(C(=O)O)O[C@@H](O[C@H]2[C@H](O)[C@@H](CO)OC(O)[C@@H]2NC(C)=O)[C@H](O)[C@H]1O (stereo partly drawn) 3.27%
CC(=O)c1ccc(C(=O)N2CCCC(c3nc(SCc4ccccn4)ncc3C)C2)cc1 (stereo not drawn) 6.15%
Cc1ccc(CN2CCOc3ccc(CN4CCN(CCO)CC4)cc3C2)s1 9.22%
Nc1[nH]nc2nc3ccccc3nc12 8.15%
O=C(CSc1ncccn1)NCC1Cc2cccc(-c3ncccn3)c2O1 (stereo not drawn) -0.704%
O=C(O)CNC(=O)c1ccccc1 4.18%
O=C(c1csnn1)N1CCC2(CC1)CN(c1ccncc1)C2 16.1%
COc1cc2c(CCNC(C)=O)c[nH]c2cc1O -5.1% [at 75.8 µM]
O=C(c1cnccn1)N1CCC2(CC1)CN(Cc1ccccc1)C2 12.9%
N#Cc1ccc(CN2CC3(CCN(C(=O)c4cnccn4)CC3)C2)cc1 2.07%
O=C1CC[C@@H](C(=O)O)N1 21.4%
O=C1CCN(CCc2ccccc2)CCN1CCSc1ccccc1 3.9%
COc1ccccc1CNc1cc(-c2ccc(C(=O)N(C)C)cc2)ncn1 4.64%
COc1ccc(-c2coc3ccc(OC4OC(COC(C)=O)C(OC(C)=O)C(OC(C)=O)C4OC(C)=O)cc3c2=O)cc1 (stereo not drawn) 10.7%
CO[C@@]1(NC(=O)C(C(=O)O)c2ccc(O)cc2)C(=O)N2C(C(=O)O)=C(CSc3nnnn3C)CO[C@@H]21 (stereo partly drawn) 15.4% [at 75.8 µM]
C=CCc1cc(OC)c(O)c(C(=O)NCCO)c1 -1.39%
Cc1ccccc1-c1cccc(CN2CCc3nnc(C(NS(C)(=O)=O)C(C)C)n3CC2)c1 (stereo not drawn) 8.77%
O=c1c(O)c(-c2ccccc2)oc2ccccc12 -2.26%
CN1CCN(c2ncc3ncc(=O)n(CCC#N)c3n2)CC1 17.2%
CN(CCc1ccc(Cl)c(Cl)c1)CC(O)COc1ccc(NS(C)(=O)=O)cc1 (stereo not drawn) 20.6%
CSc1ccc(-c2ccc3c(c2)CC(CNC(=O)Cn2nc(C)nc2C)O3)cc1 (stereo not drawn) 11.7%
COc1cccc(-c2nc(NCc3ccccc3)c3ccccc3n2)c1 -28.5%
C[C@@]12CCC3c4ccc(OS(=O)(=O)O)cc4CCC3C1CCC2O (stereo partly drawn) 12.4%
O=C(NCc1nnc2n1CCN(Cc1cccc(C(F)(F)F)c1)CC2)c1ccncc1 13.5%
COc1ccc([C@@H]2CNC(=O)C2)cc1OC1CCCC1
CN(C)Cc1ccccc1-c1nc(NCc2ccccc2)c2ccccc2n1 7.84%
Cc1nc2cnc(N3CCOCC3)nc2n(C2CC2)c1=O 6.49%
Cc1noc(C)c1-c1nccc(NCc2cccnc2)n1 5.65%
CSc1nnc(CNC(=O)c2c(-c3ccccc3)noc2C)n1-c1ccc(F)cc1 5.72%
CCCCCCCCCC[n+]1ccc(/C=C/c2c[nH]c3ccccc23)cc1 80.5%
C#C[C@]1(OC(C)=O)CC[C@H]2[C@@H]3CCC4=C[C@@H](OC(C)=O)CC[C@@H]4[C@H]3CC[C@@]21C 7.07%
COC(=O)c1c(Cl)c(Cl)c(C(=O)OC)c(Cl)c1Cl
C/C=C(/C)C(=O)OC1C(OC(C)=O)[C@@]2(CO)C(O)C[C@@]3(C)C(=CCC4[C@@]5(C)CCC(OC6OC(C(=O)O)[C@@H](O[C@@H]7OC(CO)C(O)C(O)C7O)C(O)[C@H]6O[C@@H]6OC(CO)C(O)C(O)C6O)[C@](C)(CO)C5CC[C@@]43C)C2CC1(C)C (stereo partly drawn) 14.9%
COc1cccc(Nc2ncc3nc(-c4ccc(Cl)cc4)c(=O)n(C[C@H]4CCCO4)c3n2)c1 34.6%
N[C@H]1CCN(O)C1=O 6.43%
COc1ccc2[nH]cc(CCNc3ccnc(-c4ccc(N(C)C)cc4)n3)c2c1 -9.06%
O=C(c1cnccn1)N1CCC2(CC1)CCN(C(c1ccccc1)c1ccccc1)CC2 -0.511%
CC(=O)OC1CC2C(C)(C)C(=O)C=C[C@]2(C)C2CC[C@@]3(C)C(c4ccoc4)OC(=O)C4O[C@@]43[C@]12C (stereo partly drawn) 10.2%
CO[C@]1(C2=NCCN2)COc2ccccc2O1 6.71%
Cc1cc(C(C)(C)CC(C)(C)C)ccc1OCCOCC[N+](C)(C)Cc1ccccc1 2.57%
CC(=O)N[C@@H](CC(=O)O)C(=O)N[C@@H](CCC(=O)O)C(=O)O (Ac-Asp-Glu-OH) 4.52%
CCC(C)[C@H]1COCCS(=O)(=O)N1Cc1ccc(C)cc1 (stereo partly drawn) -15.6%
COCCn1c(=O)c(-c2cc(F)cc(F)c2)nc2cnc(Nc3cccc(OC)c3)nc21 41.1%
Cc1cc(NC(=O)C2=C(O)c3ccccc3S(=O)(=O)N2C)no1 15.7%
CC(C)(CO)NC(=O)c1cnn(-c2nccc(-c3ccc4c(c3)OCO4)n2)c1C1CC1 13.9%
CC(CCC(=O)O)C1CCC2C3CC[C@H]4CC(O)CC[C@@]4(C)C3CC(O)[C@]12C (stereo partly drawn) 5.59%
Cc1nc2cc(NC(=O)[C@@H]3C[C@@H](Sc4ccccn4)CN3Cc3ccccc3C)ccc2s1 -8.2%
CO[C@@]1(NC(=O)C2SC(=C(C(N)=O)C(=O)O)S2)C(=O)N2C(C(=O)O)=C(CSc3nnnn3C)CS[C@@H]21 (stereo partly drawn) 18% [at 75.8 µM]
CN(C)c1ncc2nc(-c3cc(F)cc(F)c3)c(=O)n(Cc3ccc(F)cc3)c2n1 8.11%
CN(C)CCCN1c2ccccc2CCc2ccc(Cl)cc21
COc1ncccc1C(=O)N1CCOc2ccc(C(O)C(c3ccccc3)c3ccccc3)cc2C1 (stereo not drawn) -4.68%
Cc1c(C)c2c(c(C)c1OC(=O)c1cccnc1)CC[C@@](C)(CCC[C@H](C)CCC[C@H](C)CCCC(C)C)O2 13.9%
NC(=O)C1=CN(C2OC(COP(=O)(O)OP(=O)(O)OC[C@H]3O[C@@H](n4cnc5c(N)ncnc54)[C@H](OP(=O)(O)O)[C@@H]3O)C(O)C2O)C=CC1 (stereo partly drawn) -0.935% [at 75.8 µM]
